Experimental data: paper PMC11995724, “Antibiotic target discovery by integrated phenotypic and activity-based profiling of electrophilic fragments” (Cell chemical biology, 2025)
Hit rate of the full screen: of about 3,200 compounds, about 110 (3.4%) showed an effect of 50% or more. The list shows a part of the results.

System: T1, V. cholerae SAD30
T1 construct: SAD30
Parameters: species or system S. aureus MSSA476 (TSB) or V. cholerae SAD30 (LB); 384-well bacterial growth screen at 25 uM, OD600 relative to DMSO control
Details: relative growth, OD600, LB; 25 µM; inhibitor

SMILES | % of control remaining
C=CC(=O)NCc1nc(-c2ccc(F)cc2)n[nH]1 [3-D04, N-{[3-(4-fluorophenyl)-1H-1,2,4-triazol-5-yl]methyl}prop-2-enamide] | 110.086%
Cc1ccc(Oc2ccc(Cl)cc2NC(=O)CCl)cc1 [4-A21, 2-chloro-N-[5-chloro-2-(4-methylphenoxy)phenyl]acetamide] | 92.1285%
C=CC(=O)N1CCCCC1c1nc2ccccc2o1 (stereo not drawn) [3-O20, 1-[2-(1,3-benzoxazol-2-yl)piperidin-1-yl]prop-2-en-1-one] | 99.853%
CC(Cl)C(=O)NCC1=CCCOC1 (stereo not drawn) [7-I05, 2-chloro-N-[(5,6-dihydro-2H-pyran-3-yl)methyl]propanamide] | 83.5288%
N#CC(=Cc1ccc(N2CCCCCC2)cc1)C(=O)NCC1CCCO1 (stereo not drawn) [9-H15, 3-[4-(azepan-1-yl)phenyl]-2-cyano-N-[(oxolan-2-yl)methyl]prop-2-enamide] | 57.7158%
N#CC(=Cc1cccc(O)c1)C(=O)Nc1ccccc1C(F)(F)F [9-A20, 2-cyano-3-(3-hydroxyphenyl)-N-[2-(trifluoromethyl)phenyl]prop-2-enamide] | 87.4915%
C=CC(=O)NC1CC2CCC(C1)N2S(C)(=O)=O (stereo not drawn) [2-A18, N-{8-methanesulfonyl-8-azabicyclo[3.2.1]octan-3-yl}prop-2-enamide] | 92.975%
CC(Cl)C(=O)NC(c1ccccc1)c1ccccc1 (stereo not drawn) [5-A21, 2-chloro-N-(diphenylmethyl)propanamide] | 85.0688%
O=C(CCl)Nc1cc(-n2nnnc2C2CC2)ccc1F [6-E09, 2-chloro-N-[5-(5-cyclopropyl-1H-1,2,3,4-tetrazol-1-yl)-2-fluorophenyl]acetamide] | 90.0938%
C=CC(=O)N1CCC(C(=O)NCC2([S+](C)[O-])CCC2)CC1 (stereo not drawn) [2-D18, N-[(1-methanesulfinylcyclobutyl)methyl]-1-(prop-2-enoyl)piperidine-4-carboxamide] | 92.203%
C=CCN(Cc1cccs1)C(=O)CCl [5-B06, 2-chloro-N-(prop-2-en-1-yl)-N-[(thiophen-2-yl)methyl]acetamide] | 97.1735%
CC1CN(C(=O)C(C#N)=Cc2c(Cl)cccc2Cl)CC(C)O1 (stereo not drawn) [8-O12, 3-(2,6-dichlorophenyl)-2-(2,6-dimethylmorpholine-4-carbonyl)prop-2-enenitrile] | 70.4963%
CC(C)C(C)N(Cc1ccns1)C(=O)CCl (stereo not drawn) [5-M12, 2-chloro-N-(3-methylbutan-2-yl)-N-[(1,2-thiazol-5-yl)methyl]acetamide] | 91.2893%
CN(c1ccc(C(=O)CCl)cc1)S(C)(=O)=O [10-F19, N-[4-(2-chloroacetyl)phenyl]-N-methylmethanesulfonamide] | 14.0269%
COc1ccc(NC(=O)C(C)Cl)cc1Cl (stereo not drawn) [4-I14, 2-chloro-N-(3-chloro-4-methoxyphenyl)propanamide] | 91.4384%
C=CC(=O)Nc1cc(NC(=O)C2CC3CCC2CC3)ccc1F (stereo not drawn) [1-C17, N-[4-fluoro-3-(prop-2-enamido)phenyl]bicyclo[2.2.2]octane-2-carboxamide] | 73.6921%
CS(=O)(=O)N1CCc2cc(C(=O)CCl)ccc21 [10-B19, 2-chloro-1-(1-methanesulfonyl-2,3-dihydro-1H-indol-5-yl)ethan-1-one] | 18.0791%
CC(Cl)C(=O)Nc1ccc(Cl)cc1Cl (stereo not drawn) [4-L17, 2-chloro-N-(2,4-dichlorophenyl)propanamide] | 94.1988%
C=CC(=O)N1CCC(C(=O)N2CCCC(c3cnn(C)c3)C2)CC1 (stereo not drawn) [2-N16, 1-{4-[3-(1-methyl-1H-pyrazol-4-yl)piperidine-1-carbonyl]piperidin-1-yl}prop-2-en-1-one] | 88.6519%
C=CC(=O)N(CC)CC(=O)N1CCN(c2ccc(C#N)cc2F)CC1 [3-D03, N-{2-[4-(4-cyano-2-fluorophenyl)piperazin-1-yl]-2-oxoethyl}-N-ethylprop-2-enamide] | 125.084%
CN(C(=O)CCl)C(c1ccc(Cl)cc1)C(F)(F)F (stereo not drawn) [7-J16, 2-chloro-N-[1-(4-chlorophenyl)-2,2,2-trifluoroethyl]-N-methylacetamide] | 81.8107%
CNC(=O)CC(NC(=O)CCl)c1ccc(F)cc1F (stereo not drawn) [4-I16, 3-(2-chloroacetamido)-3-(2,4-difluorophenyl)-N-methylpropanamide] | 98.6845%
COc1ccc(C=C(C#N)C(=O)Nc2cc(C)ccc2C)cc1Cl [9-B22, 3-(3-chloro-4-methoxyphenyl)-2-cyano-N-(2,5-dimethylphenyl)prop-2-enamide] | 94.6975%

SMILES | % of control remaining
C=CC(=O)N1CCc2c(ncn2-c2ccccc2)C1 [3-N09, 1-{1-phenyl-1H,4H,5H,6H,7H-imidazo[4,5-c]pyridin-5-yl}prop-2-en-1-one] | 95.0891%
COc1ccc(Cl)cc1N1C(=O)C=CC1=O [10-K10, 1-(5-chloro-2-methoxyphenyl)-2,5-dihydro-1H-pyrrole-2,5-dione] | 24.1574%
C=CC(=O)NCc1ccc(C(=O)N2CCC(c3ccn[nH]3)CC2)cc1 [3-K08, N-({4-[4-(1H-pyrazol-5-yl)piperidine-1-carbonyl]phenyl}methyl)prop-2-enamide] | 92.0897%
CCOC(=O)c1c(C)[nH]c(C(=O)C(C)Cl)c1C (stereo not drawn) [10-B22, ethyl 5-(2-chloropropanoyl)-2,4-dimethyl-1H-pyrrole-3-carboxylate] | 103.799%
C=CC(=O)N(Cc1nonc1C)CC1C(C)=CCCC1C (stereo not drawn) [1-F15, N-[(2,6-dimethylcyclohex-2-en-1-yl)methyl]-N-[(4-methyl-1,2,5-oxadiazol-3-yl)methyl]prop-2-enamide] | 66.9656%
C=CC(=O)N1CCC(C(=O)NCc2cccc(Cl)c2F)CC1 [3-N12, N-[(3-chloro-2-fluorophenyl)methyl]-1-(prop-2-enoyl)piperidine-4-carboxamide] | 95.7949%
COc1cc(Cl)c(C)cc1NC(=O)C(C)Cl (stereo not drawn) [6-C15, 2-chloro-N-(4-chloro-2-methoxy-5-methylphenyl)propanamide] | 86.6054%
CC(Cl)C(=O)NC(C)c1cnn(CC2CCC2)c1 (stereo not drawn) [5-L15, 2-chloro-N-{1-[1-(cyclobutylmethyl)-1H-pyrazol-4-yl]ethyl}propanamide] | 98.0141%
C=CC(=O)NCC1=NOCC1 [3-G16, N-[(4,5-dihydro-1,2-oxazol-3-yl)methyl]prop-2-enamide] | 88.3845%
CN(C)S(=O)(=O)c1cccc(NC(=O)CCl)c1 [4-J08, 2-chloro-N-[3-(dimethylsulfamoyl)phenyl]acetamide] | 94.3714%
C=CC(=O)N(C)Cc1conc1CC [2-O15, N-[(3-ethyl-1,2-oxazol-4-yl)methyl]-N-methylprop-2-enamide] | 88.9607%
CC(NC(=O)CCl)c1nnc(-c2cccc(F)c2)s1 (stereo not drawn) [5-F13, 2-chloro-N-{1-[5-(3-fluorophenyl)-1,3,4-thiadiazol-2-yl]ethyl}acetamide] | 96.501%
Cc1cc(C)c(C(=O)CCl)c(C)c1 [10-C08, 2-chloro-1-(2,4,6-trimethylphenyl)ethan-1-one] | 98.9675%
CC(C)(C)c1ccc(C=C(C#N)C(=O)NCc2ccco2)cc1 [8-L14, 3-(4-tert-butylphenyl)-2-cyano-N-[(furan-2-yl)methyl]prop-2-enamide] | 61.5228%
O=C(CCl)NCc1ccc(NC(=O)C2CC2)cc1 [6-E20, N-{4-[(2-chloroacetamido)methyl]phenyl}cyclopropanecarboxamide] | 93.1273%
O=C(CCl)Nc1cc(Cl)ccc1Oc1ccccc1 [5-G19, 2-chloro-N-(5-chloro-2-phenoxyphenyl)acetamide] | 86.75%
CCOc1ccccc1NC(=O)C(C#N)=Cc1ccc2c(c1)OCO2 [9-P05, 3-(1,3-dioxaindan-5-yl)-2-cyano-N-(2-ethoxyphenyl)prop-2-enamide] | 97.6886%
C=CC(=O)NCCn1cnc2ccsc2c1=O [2-N15, N-(2-{4-oxo-3H,4H-thieno[3,2-d]pyrimidin-3-yl}ethyl)prop-2-enamide] | 91.5854%
Cc1ccccc1NC(=O)C(C#N)=Cc1ccc(N2CCCCC2)cc1 [9-E21, 2-cyano-N-(2-methylphenyl)-3-[4-(piperidin-1-yl)phenyl]prop-2-enamide] | 90.7546%
CCOc1ccccc1NC(=O)C(C#N)=Cc1c(C)[nH]c2ccccc12 [9-A06, 2-cyano-N-(2-ethoxyphenyl)-3-(2-methyl-1H-indol-3-yl)prop-2-enamide] | 88.7152%
CC(Cl)C(=O)N1CCCC1CC(=O)c1cnn(C)c1 (stereo not drawn) [6-D16, 2-chloro-1-{2-[2-(1-methyl-1H-pyrazol-4-yl)-2-oxoethyl]pyrrolidin-1-yl}propan-1-one] | 85.2403%
O=C(CCl)NC1CCS(=O)(=O)CC1 [6-M08, 2-chloro-N-(1,1-dioxo-1lambda6-thian-4-yl)acetamide] | 93.279%
